Source: PubChem BioAssay AID504332 (National Center for Advancing Translational Sciences (NCATS), 2011)
In all, about 350,000 compounds went through this assay and about 31,000 (8.9%) were called active. Inconclusive means that the source gave no clear call. Such entries were picked first, then a sample of the others. Calls follow the shape of the dose curve; as a rule, active = well fitted inhibition curve with a large enough effect; inconclusive = small, poorly fitted or top-dose-only effect; inactive = no such curve, though single readings can be large or run the other way. Potencies of inconclusive entries are doubtful fits and often do not repeat.

The molecules below were run against Histone-lysine N-methyltransferase EHMT2 (Homo sapiens) (UniProt Q96KQ7) (assay: qHTS Assay for Inhibitors of Histone Lysine Methyltransferase G9a). Conditions: G9a H3K9 monomethylation, AlphaScreen, 2 h; activity, negative = inhibition: at 59 µM (top of the series) unless noted.
Summary of the method: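 Signal arises when biotinylated H3K9 peptide, once monomethylated, bridges streptavidin donor and antibody-captured acceptor beads. Enzyme at 20 nM was preincubated 15 min with test compounds; peptide 500 nM and SAM 20 uM then reacted for 2 h.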
% is scaled to controls: 0 for no effect and ±100 for the full control effect; potency is read from the fitted curve at half-maximal effect; tags tell the direction and shape of the fitted curve.
Also: nearly all actives have a fitted effect of over 75% in size.

Sequence of UniProt Q96KQ7 (Q96KQ7 whole entry, looked up): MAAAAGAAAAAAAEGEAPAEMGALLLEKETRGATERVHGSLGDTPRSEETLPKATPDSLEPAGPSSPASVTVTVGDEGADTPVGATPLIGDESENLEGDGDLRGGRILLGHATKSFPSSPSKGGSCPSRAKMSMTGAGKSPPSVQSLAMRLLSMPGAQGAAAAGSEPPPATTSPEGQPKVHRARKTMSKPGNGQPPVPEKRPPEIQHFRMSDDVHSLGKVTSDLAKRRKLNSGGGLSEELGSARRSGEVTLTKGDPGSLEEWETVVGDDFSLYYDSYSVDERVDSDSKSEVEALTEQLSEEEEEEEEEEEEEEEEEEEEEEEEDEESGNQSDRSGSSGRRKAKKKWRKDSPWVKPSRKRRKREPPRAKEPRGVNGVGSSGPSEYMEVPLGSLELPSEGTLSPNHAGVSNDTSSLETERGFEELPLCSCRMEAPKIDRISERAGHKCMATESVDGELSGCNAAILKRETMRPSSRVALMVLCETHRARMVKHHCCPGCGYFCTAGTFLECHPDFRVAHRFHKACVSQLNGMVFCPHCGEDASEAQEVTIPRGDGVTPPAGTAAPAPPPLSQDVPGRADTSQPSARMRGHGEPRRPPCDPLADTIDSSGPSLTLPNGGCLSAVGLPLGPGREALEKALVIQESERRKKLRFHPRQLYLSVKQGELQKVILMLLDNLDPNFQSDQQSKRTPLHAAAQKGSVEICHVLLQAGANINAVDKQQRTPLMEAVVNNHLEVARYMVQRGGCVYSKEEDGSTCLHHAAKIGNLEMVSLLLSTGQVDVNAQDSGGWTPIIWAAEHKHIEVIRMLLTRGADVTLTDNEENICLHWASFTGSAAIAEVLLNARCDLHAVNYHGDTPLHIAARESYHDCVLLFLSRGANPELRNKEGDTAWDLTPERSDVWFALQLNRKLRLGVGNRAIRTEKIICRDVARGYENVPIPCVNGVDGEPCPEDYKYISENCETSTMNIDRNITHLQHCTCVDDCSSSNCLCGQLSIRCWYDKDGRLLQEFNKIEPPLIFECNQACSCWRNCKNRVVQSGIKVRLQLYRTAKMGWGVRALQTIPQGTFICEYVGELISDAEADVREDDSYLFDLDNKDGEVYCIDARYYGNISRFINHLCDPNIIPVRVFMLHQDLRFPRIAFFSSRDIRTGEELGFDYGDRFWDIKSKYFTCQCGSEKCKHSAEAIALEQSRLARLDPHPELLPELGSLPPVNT

How did the Potency turn out when `COC(=O)c1ccc(OC(=O)C2CC(=O)N(c3ccc(C)cc3C)C2)cc1` (stereo unspecified) was run?
The Potency was inconclusive: 0.794 µM [inhibitor, full curve, poor fit].

Which Potency does the source give for `O=C(O)c1cc2nc(-c3ccccc3)cc(C(F)(F)F)n2n1` here?
The Potency was inconclusive: 89.1 µM [inhibitor, single point].

How did the activity, negative = inhibition turn out when `O=C1C(=O)N(Cc2cccnc2)C(c2ccccn2)/C1=C(/O)c1ccc(F)cc1` (stereo unspecified) was run?
Its activity, negative = inhibition is inconclusive: -78.4% [inhibitor].

`COC(=O)c1nc(NC(=O)c2ccccc2Cl)n[nH]1` was tested. Which Potency did it give?
Its Potency is inconclusive: 3.98 µM [inhibitor, single point].

Which Potency does the source give for `O=C(Cc1ccc(-n2c(=O)c3sccc3n(CC(=O)Nc3ccccc3F)c2=O)cc1)NCc1ccco1` here?
Its Potency is “inactive”.

Which Potency does the source give for `CCOc1ccc(NS(=O)(=O)c2ccc3[nH]c4c(c3c2)CCCCC4)cc1` here?
The Potency was inconclusive: 28.2 µM [inhibitor, single point].

How did the Potency turn out when `CCOc1ccc2nc(SCC(=O)Nc3ncccn3)[nH]c2c1` was run?
Its Potency is inconclusive: 5.01 µM [inhibitor, full curve, poor fit].

For `Cc1oc(-c2ccc(Cl)cc2)nc1CS(=O)CC(=O)NCc1ccco1` (stereo unspecified), which Potency is on record?
The Potency was inconclusive: 79.4 µM [inhibitor, single point].

`CN1C(=O)Cc2cc(S(=O)(=O)N3CCOCC3)ccc21` was tested. Which Potency did it give?
Its Potency is active: 39.8 µM.

For `COc1cccc(NC(=O)CN(CCc2ccccc2)S(=O)(=O)c2ccc(Cl)cc2)c1`, which Potency is on record?
The Potency was active: 14.1 µM.

For `O=C(OCC(=O)N1CCCc2ccccc21)c1cccc(S(=O)(=O)N2CCc3ccccc32)c1`, which Potency is on record?
The Potency was inconclusive: 20 µM [inhibitor, single point].

How did the Potency turn out when `Cc1cc2cc(CNS(=O)(=O)c3ccc4ccccc4c3)ccc2n1C` was run?
Its Potency is inconclusive: 25.1 µM [inhibitor, single point].

Which Potency does the source give for `CCNC(=S)NNC(=O)c1cccn(Cc2ccc(Cl)cc2)c1=O` here?
The Potency was inconclusive: 28.2 µM [inhibitor, single point].

`Cc1nnc(SCC(=O)Nc2ncc(S(=O)(=O)c3ccc([N+](=O)[O-])cc3)s2)s1` was tested. Which Potency did it give?
Its Potency is inconclusive: 89.1 µM [inhibitor, single point].

With `CCOC(=O)c1c(C)[nH]c(C(=O)CN2CC(C)OC(C)C2)c1C` (stereo unspecified) as the molecule, how does the Potency read?
Its Potency is inconclusive: 50.1 µM [inhibitor, partial curve, poor fit].

`Cc1nc(C/C(=N\Nc2ccccc2)c2ccc(O)cc2O)cs1` was tested. Which Potency did it give?
Its Potency is active: 4.47 µM.

With `O=C(CCn1cccn1)Nc1ccc(Br)cc1F` as the molecule, how does the Potency read?
Its Potency is “inactive”.

`Cc1cccc(C)c1NC(=O)CNC(=O)CCNC(=O)c1ccco1` was tested. Which Potency did it give?
Its Potency is inconclusive: 3.16 µM [inhibitor, single point].

`CC(C)c1cc(C(=O)OCC(=O)N2CCN(C(=O)c3ccco3)CC2)c(O)c(C(C)C)c1` was tested. Which Potency did it give?
The Potency was inconclusive: 50.1 µM [inhibitor, partial curve].

For `Cc1cccc(CCNC(=O)c2cc3c(=O)n(C)c4ccccc4c3n2C)c1`, which Potency is on record?
Its Potency is “inactive”.

With `COc1ccccc1/C=C1\SC(=S)N(CCC(=O)Nc2cccc(O)c2)C1=O` as the molecule, how does the Potency read?
Its Potency is inconclusive: 15.8 µM [inhibitor, full curve].

Which Potency does the source give for `CC(=O)[C@H]1CC[C@H]2C3CC=C4C[C@@H](O)CC[C@]4(C)C3CC[C@]12C` (stereo partly specified) here?
Its Potency is “inactive”.

Which Potency does the source give for `CCCCc1ccc(C2C3=C(CC(C)(C)CC3=O)NC3=C2C(=O)c2ccccc23)cc1` (stereo unspecified) here?
The Potency was inconclusive: 22.4 µM [inhibitor, single point].

With `Cc1cc2c(n1-c1ccc(C(=O)NCc3ccccc3Cl)cc1)CCCC2` as the molecule, how does the Potency read?
Its Potency is “inactive”.

For `COc1ccccc1N1CCN(C(=O)c2c(C)oc3ncn(C)c(=O)c23)CC1`, which Potency is on record?
The Potency was “inactive”.

With `O=C(CSc1nnc(COc2ccccc2)o1)Nc1nccs1` as the molecule, how does the Potency read?
Its Potency is “inactive”.

Which Potency does the source give for `Cc1cc(C)c(NN=c2c(=O)c3ccccc3c2=O)c(C)c1` here?
Its Potency is inconclusive: 1.41 µM [inhibitor, full curve, poor fit].

Which Potency does the source give for `NC(=S)Nc1cccc2cc3ccccc3cc12` here?
The Potency was inconclusive: 44.7 µM [inhibitor, partial curve, poor fit].

Which Potency does the source give for `Cc1ccc(S(=O)(=O)N2CCCCCC2)cc1[N+](=O)[O-]` here?
Its Potency is inconclusive: 17.8 µM [inhibitor, single point].

With `COC(=O)c1[nH]c2cccc(OC)c2c1NC(=O)CN1CCC(C(N)=O)(N2CCCCC2)CC1` as the molecule, how does the Potency read?
The Potency was “inactive”.

Which Potency does the source give for `CCN1CCN(c2ccc(S(=O)(=O)N3CCCCC3)cc2NC(=O)c2ccc([N+](=O)[O-])s2)CC1` here?
Its Potency is active: 10 µM.

For `Cc1ccc(OCCCCn2ccnc2)c(Cl)c1`, which Potency is on record?
The Potency was “inactive”.

For `COc1ccccc1CNc1ccc(N2CCOCC2)c(C(=O)O)c1`, which activity, negative = inhibition is on record?
Its activity, negative = inhibition is inconclusive: -73.8% [inhibitor].

For `OC(COc1ccccc1)CN1CCCC1` (stereo unspecified), which Potency is on record?
Its Potency is “inactive”.

`Cc1ccc(S(=O)(=O)NCCSc2nnc(N)s2)cc1` was tested. Which Potency did it give?
Its Potency is active: 12.6 µM.

`COC(=O)c1cc(C(=O)CSc2nc(C)cc(C)n2)ccc1O` was tested. Which Potency did it give?
The Potency was inconclusive: 50.1 µM [inhibitor, partial curve, poor fit].

Which Potency does the source give for `COCCn1c(=NC(=O)c2ccc3c(c2)OCCO3)sc2cc(S(N)(=O)=O)ccc21` here?
Its Potency is inconclusive: 89.1 µM [inhibitor, single point].

For `O=C(C[n+]1cccc2ccccc21)c1ccc(Cl)cc1`, which Potency is on record?
Its Potency is inconclusive: 70.8 µM [inhibitor, single point].

Which Potency does the source give for `Oc1ccc(C2C(c3ccccc3)=NN=C(c3ccc(Cl)cc3)N2O)c(O)c1` (stereo unspecified) here?
Its Potency is active: 11.2 µM.

Which Potency does the source give for `CC(C)(C)NC(=O)C(c1ccncc1)N(C(=O)Cn1nnc(-c2cccs2)n1)C1CCCCC1` (stereo unspecified) here?
Its Potency is inconclusive: 50.1 µM [inhibitor, partial curve, poor fit].

For `COc1ccc(NC(=O)NC2COc3ccccc3C2)cc1Cl` (stereo unspecified), which Potency is on record?
Its Potency is “inactive”.

`CCN(CC)CCn1c(=S)[nH]c2ccc(Cl)cc2c1=O` was tested. Which Potency did it give?
The Potency was active: 31.6 µM.

How did the Potency turn out when `O=C(c1ccc2c(c1)N(Cc1cccc(F)c1)C(=O)c1ccccc1S2)N1CCCC1` was run?
Its Potency is “inactive”.

How did the Potency turn out when `CCOC(=O)c1c(C)[nH]c(C)c1C(=O)COC(=O)c1cc(OC)cc(OC)c1` was run?
The Potency was inconclusive: 44.7 µM [inhibitor, partial curve, poor fit].

With `COc1ccc(C(CC(=O)Nc2ccc(C(C)=O)cc2)N2Cc3ccccc3C2=O)cc1` (stereo unspecified) as the molecule, how does the Potency read?
The Potency was “inactive”.

With `CCN=c1scc(-c2ccco2)n1/N=C/c1ccc(OC)c(O)c1` as the molecule, how does the Potency read?
The Potency was active: 14.1 µM.
